The record followed here is ChEMBL document CHEMBL4888484, “Replenishing the malaria drug discovery pipeline: Screening and hit evaluation of the MMV Hit Generation Library 1 (HGL1) against asexual blood stage Plasmodium falciparum ,using a nano luciferase reporter read-out” (2022).

About 540 (0.36%) of roughly 150,000 compounds showed an effect of 50% or more. Some of the results follow.

The assay relates to Plasmodium falciparum. In words: Primary screen in NF54 nanoGlo assay, in single point, at 2uM, 72h; a lower Z score goes with more inhibition. As to conditions: timepoint 72 hour. In kind it is functional, Erythrocyte.
A word on the % Inhibition: it is the change of the read-out against control, counted positive when it falls. As to `COc1ccc(CCNC(=O)N2CCN(CC(C)(C)O)C[C@@H]2C)cc1F`, the “% Inhibition” value was -7% and the Z score is 1.33.
Take `CCN(CCC(C)(C)C)CC(=O)Nc1ccc(NC(C)=O)cc1`: the “% Inhibition” value is reported as -3% and the Z score is 0.52.
The like results for `COc1ccc(-c2ccc(N3CCCN(C(=O)CN(C(=O)c4ccc(Cl)cc4)C(C)C)CC3)nn2)cc1OC` were, in that order, -8% and 0.86.
Taken in the same sequence, the figures for `Cc1nn(C)cc1C(=O)N1CCN(c2ncccn2)[C@H]2CS(=O)(=O)C[C@H]21` were -4% and 0.51.
The like results for `COC(=O)c1ccc2c(c1)CC[C@H](NCc1ccncc1F)C(=O)N2` were, in that order, -3% and 0.44.
Regarding `O=C(O)[C@@H]1CCCN1S(=O)(=O)c1cccc2cccc(Cl)c12`, the “% Inhibition” value is -6% and the Z score was found to be 0.67.
Taken in the same sequence, the figures for `C(=C\c1nnc(-c2ccccc2)o1)/c1cc2ccccc2o1` were 0% and -0.03.
In the case of `O=C(CCCOc1ccccc1)N1CCC[C@H](c2nnc[nH]2)C1`, the “% Inhibition” value is -13% and the Z score came to 1.78.
Regarding `CCn1cc(C(=O)OCCNC(=O)c2ccn[nH]2)cn1`, the “% Inhibition” value is -5% and the Z score is reported as 0.75.
Consider `Cc1nc2c3c(ccc2s1)CCCC3`, for which the “% Inhibition” value was -34% and the Z score is on record as 4.05.
On to `c1ccc(CN2Cc3nc[nH]c3C[C@H]2c2nc(-c3ccc4ccccc4c3)no2)cc1`, for which the “% Inhibition” value stood at 4% and the Z score is on record as -0.57.
Taken in the same sequence, the figures for `O=C(Nc1cc(Cl)ccc1NC1CC1)c1c[nH]c(=O)c(Cl)c1` were 2% and -0.25.
The like results for `CO[C@@H](C)c1nsc(N2CCC(NCc3ccccc3)CC2)n1` were, in that order, -5% and 0.56.
Turning to `CC1(C)NC(=O)N(CCCN2CCOCC2C2CCCCC2O)C1=O` (stereo unspecified), the “% Inhibition” value is reported as -10% and the Z score is 2.02.
For the compound `CC(C(=O)N1CCc2ccccc21)N1CCCC(c2ccn[nH]2)C1` (stereo unspecified), the “% Inhibition” value is listed as -8% and the Z score amounted to 1.18.
Regarding `Cc1ncc(CN2CCC(NC(=O)C(C)C3CCCC3)C(C)C2)s1` (stereo unspecified), the “% Inhibition” value was -11% and the Z score is 2.14.
The like results for `O=C1CC(CC2CC2)=NN1[C@H]1CCCOC1` were, in that order, -6% and 1.04.
Regarding `CCc1nn(C)c(NC(=O)[C@@H](N)C2CCCCC2)c1CC`, the “% Inhibition” value is reported as -5% and the Z score was 0.84.
As for `COCC(=O)N1CCc2cc(NC(=O)c3ccncn3)ccc21`, the “% Inhibition” value is -6% and the Z score was 0.69.
Taken in the same sequence, the figures for `CCN(c1nc2c(s1)c(C)nn2C)C1CCOCC1` were -23% and 2.28.
Take `Cc1c(NC(=O)CN2C(=O)N[C@]3(CCc4ccccc4C3)C2=O)c(=O)n(-c2ccccc2)n1C`: the “% Inhibition” value is listed as -6% and the Z score was 0.83.
The like results for `c1ccc(-c2nc(N(c3ccccc3)c3ccccc3)s[n+]2-c2ccccc2)cc1` were, in that order, -3% and 0.31.
Turning to `CC(CC(C)C(c1ccccc1)c1ccccc1)NCCc1ccccc1` (stereo unspecified), the “% Inhibition” value turned out to be 6% and the Z score is -0.96.
With `c1cc2nccc(-c3nc([C@@H]4CCCO4)no3)c2cn1`, the “% Inhibition” value worked out at 0% and the Z score came out at 0.
The like results for `CCc1nc(-c2ccc(O[C@H]3CCN(C(=O)c4ccc(F)cc4)C3)cc2)no1` were, in that order, 33% and -3.7.
The like results for `CCCC(=O)N1CCC[C@H]1C(=O)OCc1nc(C)c(C)o1` were, in that order, 0% and 0.05.
The like results for `O=C(c1cccnc1/C=C/C1CCCCC1)N1C[C@@H]2CC[C@H]1C2` were, in that order, -13% and 1.28.
Turning to `Cc1ccc(-c2n[nH]cc2[C@@H]2NC(=O)c3cccnc3N2)o1`, the “% Inhibition” value was -7% and the Z score stood at 0.86.
Taken in the same sequence, the figures for `Cc1ccc(CN(C)C(=O)c2ccc3c(=O)n4c(nc3c2)CCCCCC4)c(C)c1` were 5% and -0.69.
Taken in the same sequence, the figures for `C=CCNC(=O)c1csc(-c2ccc(OCc3ccc(Cl)c(Cl)c3)c(OC)c2)n1` were 6% and -0.9.
Taken in the same sequence, the figures for `Cc1cccc(Cc2c(C)nc(C(C)C)nc2N2CCN(C(=O)c3cccs3)CC2)c1` were -14% and 1.38.
For the compound `O=C(c1ccco1)N(Cc1ccc(-c2ccccc2)cc1)Cc1ccc2ccccc2n1`, the “% Inhibition” value turned out to be 5% and the Z score was -0.59.
The like results for `O=C(N[C@H]1CCN(c2nccs2)C1)c1cccs1` were, in that order, -8% and 1.59.
Taken in the same sequence, the figures for `FC(F)Cn1ccc(NCc2nc(C(F)(F)F)n3c2CCCC3)n1` were -11% and 1.49.
As to `NC1CCOC(C2CCN(C(=O)CC3CCCc4ccccc43)CC2)C1` (stereo unspecified), the “% Inhibition” value is recorded as -1% and the Z score is given as 0.25.
The like results for `O=C(NCCc1nc2ccccc2[nH]1)[C@H]1CCS(=O)(=O)C1` were, in that order, -3% and 0.32.
The like results for `CC(=O)N1CCC(CNc2ncnc3c2cnn3C(C)(C)C)CC1` were, in that order, -4% and 0.43.
Taken in the same sequence, the figures for `Cc1nc(CCCN2CCN(C(C)C)CC2)cs1` were -6% and 0.55.
On to `O=C1CCCc2c(OCc3nnnn3-c3ccccc3)cccc21`, for which the “% Inhibition” value is recorded as -12% and the Z score was determined as 1.23.
Turning to `CC1=C(C(=O)N2CCC3(CCCCCC3)C2)OCCO1`, the “% Inhibition” value is listed as -8% and the Z score is listed as 1.17.
The like results for `COc1ccc(C(=O)N2CCC[C@@]3(C2)Nc2cccnc2N=C3NC2CCCC2)cn1` were, in that order, 34% and -3.8.
For the compound `CCC[C@H](NC(=O)CN(c1ccc(C)cc1)S(=O)(=O)N(C)C)c1cccs1`, the “% Inhibition” value is listed as -24% and the Z score came out at 2.16.
Taken in the same sequence, the figures for `Cc1ccc(C(=O)N(Cc2ccccc2)c2ccccc2)cn1` were -5% and 0.49.
Taken in the same sequence, the figures for `Cc1c(Cl)cccc1-n1nc(C)c2c(C(F)(F)F)cc(OCc3ccc4nonc4c3)nc21` were -1% and 0.12.
The like results for `Cc1cccc2nc(N(C)Cc3nnc4c(=O)n(C)ccn34)sc12` were, in that order, -14% and 1.78.
As to `CN1CCC(n2nc(-c3ccco3)nc2Cn2ccccc2=O)CC1`, the “% Inhibition” value is 10% and the Z score is recorded as -1.33.
Turning to `COc1ccc(C(=O)Nc2ccc3n(c2=O)C[C@H]2C[C@@H]3CN(S(=O)(=O)c3ccc(C)cc3)C2)cc1`, the “% Inhibition” value was -12% and the Z score is given as 1.51.
Taken in the same sequence, the figures for `COc1ccc(-c2csc(N3CCC(c4ccccc4)CC3)n2)cc1` were -3% and 0.57.
As for `Cn1cc(-c2nccnc2CNC(=O)C(C)(C)C)cn1`, the “% Inhibition” value is on record as -14% and the Z score was found to be 1.55.
The like results for `CN1CCC[C@H](c2nnc3sc(-c4ccc(OCc5ccccc5)cc4)nn23)C1` were, in that order, 33% and -0.74.
Taken in the same sequence, the figures for `CCOc1ccc(-c2nc(CN3CC[C@H](CN4CCOCC4)C3)co2)cc1` were -10% and 1.29.
Taken in the same sequence, the figures for `O=C(CCc1cc2n(n1)CCN(C(=O)Nc1cccc(F)c1)C2)NC1CC1` were -18% and 1.79.
`Cc1nnc(-c2ccccc2-c2cc(F)cc3cccnc23)o1`: the “% Inhibition” value is -7% and the Z score is reported as 0.96.
